Tested on: 4 ccRCC cell lines
Assay: High-throughput proliferative screen, single point
Details: 10μM; proliferative screen in ccRCC cell lines

Compound	Single Pt Act (10μM)
O=C(c1ccc(OCc2ccccc2)nc1)N1CCC2(CCN(C(=O)c3ccccc3C(F)(F)F)CC2)C1 [TC03.8]	No
CNC(=O)c1ccc(O[C@H]2CCN(C(=O)c3ccccc3C(F)(F)F)C2)cc1 [SetB.68]	No
O=C(c1ccccc1C(F)(F)F)N1CCC(S(=O)(=O)Nc2ccc(OCc3ccccc3)nc2)CC1 [TC03.18]	No
CNC(=O)c1cccc(S(=O)(=O)N2CC[C@H](COc3ccccc3Cl)C2)c1 [SetA.70]	No
CNC(=O)Cc1cccc(OC2CCN(C(=O)c3ccccc3C(F)(F)F)CC2)c1 [SetB.74]	No
O=C(c1ccc(OCc2ccccc2)nc1)N1C[C@@H]2CN(C(=O)c3ccccc3C(F)(F)F)C[C@H]2C1 [TC03.6]	No
O=C(NC1CCN(C(=O)c2ccccc2C(F)(F)F)CC1)c1ccc(OCc2ccccc2)nc1 [TC03.14]	No

Tested on: SCD1
Assay: not given
Details: known value, no reference given; read-out: Known IC50; cited from earlier work

Compound	IC50 [nM]
NC(=O)c1cnc(N2CCN(C(=O)c3ccccc3C(F)(F)F)CC2)s1 [MerckFrost MF-152, reference compound]	100

From PMC5787466, “Accelerated bottom-up drug design platform enables the discovery of novel stearoyl-CoA desaturase 1 inhibitors for cancer therapy” (Oncotarget, 2017)
